Assay results from the supplement of paper PMC9446081.
About 220 (0.56%) of roughly 39,000 compounds showed activity. The list shows a part of the results.

System: Escherichia coli K-12 BW25113
Assay: relative growth (OD600 normalised to plate interquartile mean) (fraction); higher = less growth inhibition, active = 0.2 or less
Details: 50 µM; LB; incubation time: overnight (16-24 h)
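Note: static incubation at 37 °C against the wild-type strain, values averaged over two biological replicates.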

Structure (SMILES) | relative growth
COc1ccc(cc1)NC(=O)N1CC[C@]2(CC1)CN([C@H](CO)c1[nH]c3cc(ccc3c12)OC)C(=O)CN1CCOCC1 | inactive: 1
CCS(=O)(=O)Nc1ccc2c(c1)C(=O)N(C)[C@H]1CC[C@@H](CC(=O)N[C@@H]3CCN(Cc4ccccc4)C3)O[C@@H]1CO2 | inactive: 1
C[C@H](CO)N1C[C@H](C)[C@H](CN(C)C(=O)Nc2ccc(F)cc2)Oc2c(NS(=O)(=O)c3cn(C)cn3)cccc2C1=O | inactive: 0.979
C[C@H](CO)N1C[C@H](C)[C@@H](CN(C)CC2CCCCC2)OCCCC[C@H](C)Oc2ccc(NC(=O)c3ccccc3)cc2C1=O | inactive: 0.946
COc1ccc(S(=O)(=O)Nc2ccc3c(c2)C(=O)N([C@H](C)CO)C[C@H](C)[C@@H](CN(C)C(=O)CCC(F)(F)F)OCCCC[C@H](C)O3)cc1 | inactive: 0.993
COc1ccc(CN(c2ncns2)S(=O)(=O)c2ccc(Oc3c(F)cc(F)cc3-c3ccnn3C)c(C#N)c2)c(OC)c1 | inactive: 0.995
C[C@@H]1CN([C@H](C)CO)C(=O)c2cc(-c3cccc(C#N)c3)cnc2O[C@@H]1CN(C)C(=O)c1cnccn1 | inactive: 0.999
C[C@H](CO)N1C[C@H](C)[C@H](CN(C)C(=O)C2CCOCC2)Oc2ncc(/C=C/c3ccccc3)cc2C1=O | inactive: 1
Cc1ccc(S(=O)(=O)Nc2ccc3c(c2)C(=O)N([C@H](C)CO)C[C@H](C)[C@H](CN(C)C(=O)Nc2cccc4ccccc24)O3)cc1 | inactive: 0.993
C[C@H](O)C#Cc1ccc2c(c1)O[C@@H](CN(C)C(=O)c1ccccc1)[C@H](C)CN([C@H](C)CO)S2(=O)=O | inactive: 1.01
COc1ccc(CNC(=O)C[C@H]2CC[C@@H]3[C@H](COc4ccc(NC(=O)C(C)C)cc4C(=O)N3C)O2)cc1 | inactive: 1
C[C@H]1CCCCO[C@H](CN(C)S(=O)(=O)c2ccc(F)cc2)[C@@H](C)CN([C@@H](C)CO)C(=O)c2cc(NC(=O)NC3CCCCC3)ccc2O1 | inactive: 0.986
CCOC(=O)c1cc2c(c(-c3ccccc3)n1)[C@@H](CCO[Si](C)(C)C(C)(C)C)N(S(=O)(=O)C(C)(C)C)C2 | inactive: 1.08
C[C@@H]1CN([C@H](C)CO)S(=O)(=O)c2ccc(C#Cc3ccccc3F)cc2O[C@H]1CN(C)CC1CCOCC1 | inactive: 0.999
C[C@@H]1C[C@H](C)CN(S(=O)(=O)N2CCC[C@H](C(=O)NCCN3CCOCC3)C2)C1 | inactive: 0.929
COc1ccc(CN(C)C[C@@H]2Oc3ccc(NC(=O)C4CC4)cc3CC(=O)N([C@H](C)CO)C[C@@H]2C)cc1 | inactive: 1.01
COc1ccc(C#Cc2cnc3c(c2)C(=O)N([C@H](C)CO)C[C@@H](C)[C@@H](CN(C)CC2CCOCC2)O3)cc1 | inactive: 1.02
C=CCN1C(=O)[C@]2(O[C@H](CCn3cc([C@H](O)c4ccccc4)nn3)[C@@H]([Si](C)(C)c3ccc(OC)cc3)[C@@H]2C)c2ccccc21 | inactive: 1.04
Cc1noc(C)c1S(=O)(=O)Nc1ccc2c(c1)C(=O)N([C@H](C)CO)C[C@@H](C)[C@@H](CN(C)S(=O)(=O)c1cn(C)cn1)OCCCC[C@H](C)O2 | inactive: 0.984

Structure (SMILES) | relative growth
CN(C)CC(=O)N1CC2(C1)[C@@H](c1ccccc1)[C@@H](CO)N2S(C)(=O)=O | inactive: 0.97
C[C@H](CO)N1C[C@H](C)[C@@H](CN(C)C(=O)c2ccc(F)cc2)Oc2cc(Br)ccc2S1(=O)=O | inactive: 1.01
Cc1noc(C)c1NC(=O)Nc1cccc2c1O[C@H](CN(C)Cc1ccc(C(=O)Nc3ccccc3N)cc1)[C@H](C)CN([C@H](C)CO)C2=O | inactive: 0.991
C[C@H]1CN([C@@H](C)CO)C(=O)c2cc(NC(=O)Nc3ccc(F)cc3)ccc2O[C@H]1CN(C)Cc1ccc(C(F)(F)F)cc1 | inactive: 0.973
C[C@H](CO)N1C[C@H](C)[C@@H](CN(C)C(=O)Nc2ccccc2)Oc2ccc(NS(=O)(=O)c3cn(C)cn3)cc2CC1=O | inactive: 0.987
COc1ccc(NC(=O)Nc2ccc3c(c2)C(=O)N([C@H](C)CO)C[C@H](C)[C@@H](CN(C)C(=O)CCC(F)(F)F)OCCCC[C@H](C)O3)cc1 | inactive: 1.01
Cc1noc(C)c1NC(=O)Nc1ccc2c(c1)C(=O)N([C@@H](C)CO)C[C@@H](C)[C@@H](CN(C)S(=O)(=O)c1ccc(Cl)cc1)OCCCC[C@@H](C)O2 | inactive: 0.988
C[C@H]1CCCN(C(=O)N2c3ccccc3Sc3ccccc32)C1 | inactive: 1.01
CC(C)NC(=O)N(C)C[C@@H]1Oc2cc(-c3ccccc3F)ccc2S(=O)(=O)N([C@@H](C)CO)C[C@@H]1C | inactive: 0.987
C[C@@H]1CN([C@@H](C)CO)C(=O)Cc2cc(NC(=O)Cn3cnnn3)ccc2O[C@@H]1CN(C)Cc1ccc(Oc2ccccc2)cc1 | inactive: 1.01
O=C1O[C@@H](c2ccccc2)[C@@H](c2ccccc2)N2[C@@H](c3ccc(O)cc3)[C@]3(C(=O)Nc4ccc(C#CC5=CCCCC5)cc43)[C@@H](C(=O)NC[C@H](O)c3ccccc3)[C@H]12 | inactive: 1
C[C@H](CO)N1C[C@H](C)[C@H](CN(C)C(=O)Nc2ccc3c(c2)OCO3)Oc2ccc(NS(=O)(=O)c3cn(C)cn3)cc2C1=O | inactive: 1
C[C@@H]1CN([C@@H](C)CO)C(=O)c2cccc(NS(C)(=O)=O)c2O[C@H]1CN(C)Cc1ccc(C(=O)O)cc1 | inactive: 0.996
C[C@@H]1CCCCO[C@@H](CN(C)S(=O)(=O)c2ccccc2)[C@H](C)CN([C@@H](C)CO)C(=O)c2cc(NC(=O)Nc3ccc(F)cc3)ccc2O1 | inactive: 1.01
C[C@@H]1CN([C@H](C)CO)C(=O)c2cccc(NS(=O)(=O)c3ccc(F)cc3)c2O[C@H]1CN(C)C(=O)Nc1cccc2ccccc12 | inactive: 0.999
COc1ccc(NC(=O)Nc2cccc3c2O[C@@H](CN(C)CC2CCCCC2)[C@H](C)CN([C@H](C)CO)C3=O)cc1 | inactive: 1
O=C(C[C@@H]1C[C@@H]2c3cc(NC(=O)Nc4ccc(C(F)(F)F)cc4)ccc3O[C@@H]2[C@H](CO)O1)NCc1cc(F)ccc1F | inactive: 0.982
C[C@H](CO)N1C[C@H](C)[C@@H](CN(C)CC2CCCCC2)OCCCC[C@H](C)Oc2ccc(NC(=O)c3ccncc3)cc2C1=O | inactive: 1
CO[C@@H](CN(C)C(=O)c1ccc2c(c1)OCO2)[C@@H](C)CN([C@@H](C)CO)S(=O)(=O)c1ccc(C)cc1 | inactive: 0.935

Structure (SMILES) | relative growth
C[C@H]1CN([C@@H](C)CO)C(=O)Cc2cc(NC(=O)C3CC3)ccc2O[C@@H]1CN(C)S(=O)(=O)c1cccs1 | inactive: 0.97
COc1ccc2c3c(n(c2c1)C)[C@@H](CO)N(Cc1cc(cc(c1)OC)OC)C[C@]13CN(C1)S(=O)(=O)c1cn(cn1)C | inactive: 1.01
COc1ccc(S(=O)(=O)N(C)C[C@@H]2Oc3ccc(NC(=O)c4ccncc4)cc3CC(=O)N([C@H](C)CO)C[C@H]2C)cc1 | inactive: 0.999
O=C(CN1CCOCC1)N[C@H]1CC[C@H](CCNC(=O)C2CCCCC2)O[C@@H]1CO | inactive: 0.988
CN1C(=O)c2cc(NC(=O)C3CCCC3)ccc2OC[C@@H]2O[C@H](CC(=O)NCCc3ccncc3)CC[C@@H]21 | inactive: 0.991
COc1ccc(S(=O)(=O)Nc2ccc3c(c2)CC(=O)N([C@@H](C)CO)C[C@H](C)[C@@H](CN(C)S(=O)(=O)c2ccc(C)cc2)O3)cc1 | inactive: 1
CC(C=CC=C(C)C=CC(=O)C1(C)CC(O)CC1(C)C)=CC=CC=C(C)C=CC=C(C)C=CC1=C(C)CC(O)CC1(C)C (configuration not stated) | inactive: 1.05
C[C@@H]1CN([C@H](C)CO)C(=O)CCCn2nncc2CO[C@@H]1CN(C)C(=O)Nc1ccc(C(F)(F)F)cc1 | inactive: 0.966
O=C(C[C@@H]1CC[C@H]2[C@@H](COC[C@H](O)CN2C(=O)Nc2cc(Cl)cc(Cl)c2)O1)N1CCOCC1 | inactive: 0.977
CO[C@H]1CN(C)C(=O)c2ccc(NC(=O)c3ccccc3)cc2OC[C@@H](C)N(C(=O)CN(C)C)C[C@H]1C | inactive: 1.01
C[C@@H]1CN([C@@H](C)CO)C(=O)c2c(c3ccccc3n2C)-c2ccccc2CO[C@@H]1CN(C)Cc1ccc(C(F)(F)F)cc1 | inactive: 1.09
COc1ccc(S(=O)(=O)Nc2ccc3c(c2)C(=O)N([C@H](C)CO)C[C@@H](C)[C@H](CN(C)S(C)(=O)=O)O3)cc1 | inactive: 1.01
C[C@H]1CCCCO[C@H](CN(C)C(=O)Nc2ccc3c(c2)OCO3)[C@@H](C)CN([C@@H](C)CO)C(=O)c2cc(NS(=O)(=O)c3cccs3)ccc2O1 | inactive: 1.02
Cc1ccc(S(=O)(=O)N(C)C[C@H]2OCCCC[C@@H](C)Oc3ccc(NC(=O)C4CCCCC4)cc3C(=O)N([C@@H](C)CO)C[C@@H]2C)cc1 | inactive: 1.02
C[C@H]1CN([C@@H](C)CO)C(=O)c2cccc(NC(=O)c3ccncc3)c2O[C@@H]1CN(C)Cc1ccc(Oc2ccccc2)cc1 | inactive: 1.01
C[C@H]1CN([C@@H](C)CO)C(=O)Cc2cc(NS(=O)(=O)c3cccs3)ccc2O[C@@H]1CN(C)Cc1ccncc1 | inactive: 1
CC1OC(Oc2c(-c3ccc(O)c(O)c3)oc3cc(O)cc(O)c3c2=O)C(O)C(O)C1O (configuration not stated) | inactive: 1.14
O=C(C[C@@H]1C[C@@H]2c3cc(NC(=O)NC4CCCC4)ccc3O[C@@H]2[C@@H](CO)O1)NCCN1CCCCC1 | inactive: 0.983
CN1C(=O)c2cc(NC(=O)C3CCCC3)ccc2OC[C@@H]2O[C@@H](CC(=O)NCCc3ccncc3)CC[C@H]21 | inactive: 1.01
